# Measurements reported in the supplement of paper PMC3334620.
# Over roughly 33,000 sequences, “E-score (-0.5 to 0.5)” has its median near -0.056; the highest 2% begin near 0.38. Some of the results follow.
# Biological target: Stb4 (UniProt P50104)
# Assay: PBM E-score (8-mer binding enrichment) (E-score (-0.5 to 0.5)); higher = stronger / more preferred TF binding; most listed sequences are background and not binding sites
# Settings: protein concentration: 200 nM; construct: GST-DNA-binding domain
# In short: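 Masliner-normalised scans of fluorescent anti-GST signal were the basis for scoring. That signal came from GST-tagged yeast transcription factors applied at about 100-200 nM to double-stranded universal all-10-mer Agilent arrays on fresh or once-stripped slides. Each ungapped eight-base word, pooled with its reverse complement, received an E-score from the Universal PBM Analysis Suite.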
row,Sequence,PBM E-score
1,AGCGCAAC,-0.00918
2,CACTTCAC,0.00698
3,GGGTACCA,0.0218
4,ATCGCCTA,-0.00638
5,ACAGAGTA,-0.158
6,ATCCAGAA,-0.183
7,GAGAAATA,0.0451
8,AATAAGGC,-0.172
9,ATTAAGAA,-0.0469
10,GCATTAGC,-0.0519
11,CGGTCGAA,0.123
12,ATTCTCCC,0.117
13,GGACCTCC,-0.0205
14,CAGTCTGA,-0.171
15,CCTACACA,-0.00549
16,ACCCATCG,0.089
17,ACTTTGCG,-0.165
18,ATGAGCAG,-0.235
19,ACCATCCG,0.406
20,TCAGCTGA,-0.216
21,ATGCCGGG,0.21
22,AGACAACG,0.00381
23,CGGATGAG,0.369
24,ACGGTAGA,-0.0117
25,AATTATAC,0.148

row,Sequence,PBM E-score
1,AAAAGAGA,-0.116
2,CTGAGGTA,-0.0338
3,ACACATAT,-0.0896
4,CACTAAGG,-0.0799
5,CAATGACC,-0.0476
6,GCGTGATA,-0.137
7,AATAGCCG,0.365
8,CATTGTTC,0.0687
9,GCTATTGA,0.0421
10,AAAGTGCC,0.09
11,ACAGTGCA,0.0226
12,CACGGATA,0.385
13,ACTTCATA,-0.0493
14,AACTTTGC,-0.0308
15,CGAGTTTA,0.121
16,GTTGCTTA,-0.114
17,AACATCCG,0.45
18,GCGTGTTA,-0.228
19,CCAAATTA,-0.129
20,AAACCGAA,0.259
21,CCCTAACG,-0.0999
22,CCACTTTA,-0.0638
23,ACTTTTGA,-0.157
24,ACCATCGC,-0.134
25,ACAATACG,-0.0698

row,Sequence,PBM E-score
1,ACACACTG,-0.217
2,CGACTTCA,0.105
3,CTGCCAGC,-0.208
4,CCAGAGTA,-0.0737
5,ACTGCAAG,-0.0615
6,GGAGAGTA,0.124
7,TCTTAGAA,0.135
8,CACTTATA,-0.0137
9,CATGTAAG,-0.101
10,CTAAGGCC,-0.243
11,AATCCACT,-0.0867
12,GCCTCGCA,-0.288
13,ACGTGTCT,-0.0491
14,CCGAGGAA,0.387
15,AGGATTGG,-0.223
16,CCCAACCG,0.0985
17,CACAAGTA,-0.115
18,AGAAGCAA,-0.13
19,AACCGCTC,0.0554
20,AGAGATCG,-0.0566
21,AAAGAGCG,-0.196
22,AACAAGCC,-0.183
23,GCCCCACA,-0.12
24,GCGGGTCC,0.0973
25,GCTATTCC,0.0156

row,Sequence,PBM E-score
1,CGTCCTTA,-0.0569
2,AATATAGG,-0.163
3,CGTGGGAC,-0.106
4,CTGGCTCA,-0.197
5,TCGAACAA,-0.141
6,ACATCTGG,0.0485
7,GAAGGAGC,-0.203
8,GAATTGAC,-0.063
9,CCAGGGCG,-0.033
10,ATGCCTTG,-0.187
11,CTCCACGA,-0.208
12,CATATTCG,0.147
13,GCGTATAA,0.0211
14,GTAGACAA,-0.122
15,ATCTATAG,-0.103
16,ACATCAAG,-0.0909
17,CTGATCCA,-0.0972
18,CGCGCTCC,0.0904
19,AACTCCGG,0.352
20,GAGTGCTA,0.0392
21,AGTTTGTC,-0.173
22,TGAACCAA,-0.121
23,AAATCAAA,-0.0179
24,ATCGCTAC,-0.136
25,ACGGTATG,-0.0571

row,Sequence,PBM E-score
1,AGTTACCG,0.28
2,ACGTACTA,-0.194
3,CGATTCTC,0.0534
4,GAGGGGAA,0.249
5,CCTACTCC,-0.176
6,GACCCGCA,0.174
7,GCGCTCCA,-0.0561
8,GGACTTGA,-0.0587
9,CGGACGAA,0.259
10,ACGGGCCC,0.163
11,ATTAAACC,0.0482
12,ATTCTTGG,0.16
13,AGACCCCT,-0.304
14,ATCAATGA,0.0858
15,GGCCCACC,0.0688
16,ATTGATGG,-0.0726
17,CGACGGAG,0.195
18,CACCGGTG,0.00925
19,CCGTTCAC,-0.0602
20,GAAGGTCA,-0.184
21,CCTACGAA,-0.00465
22,ACCTCCTC,-0.153
23,CTTGTGTA,-0.204
24,CCGAAAGA,0.388
25,CGCATCGC,-0.124

row,Sequence,PBM E-score
1,CCCTTCTC,-0.235
2,GAATCTCC,0.234
3,ATCCTCCG,0.212
4,GACAATAA,-0.0334
5,CTAGTAAC,-0.144
6,CGACACTC,0.144
7,ATCGTCGC,-0.205
8,CAGCGCGG,0.148
9,GAGCCGGC,0.307
10,TCATGAAA,0.0361
11,AGTTTATG,-0.177
12,CAGTTCGG,0.409
13,ATGTGTCG,0.0218
14,CACCTCTC,-0.192
15,CTAAGATA,-0.101
16,CGTGAGCC,-0.0227
17,GTTTTCGA,-0.185
18,CATTGGTC,-0.103
19,CACAAATC,-0.11
20,GGGGTGGA,0.0241
21,AACGAAAG,0.0571
22,AAAGTTCC,0.167
23,TCTACAAA,-0.147
24,ACTTGAGA,-0.21
25,AATGTAGT,-0.0222

row,Sequence,PBM E-score
1,AATCTTAT,0.0503
2,AACATGTA,0.003
3,ATCAATTA,0.0663
4,ACTTTCCG,0.383
5,AGCAATAC,-0.0735
6,AGGTGGCG,-0.0738
7,ACCTTGGG,-0.0307
8,TGTGTGAA,-0.0844
9,AAGACCTA,-0.00508
10,ACAGCGCC,0.0113
11,ACAGGTCA,-0.155
12,CTCGGGTA,0.478
13,AATACGGG,0.0937
14,CGCCCGTC,0.265
15,GTGTACTA,-0.101
16,GTCGGAAA,0.453
17,GTAAGGTA,-0.0476
18,GCGCCGCC,0.048
19,ATTCTACG,-0.00064
20,CAAGCTTG,-0.136
21,ATGCCCTG,-0.23
22,GATGCGTA,0.0235
23,CAGTTCTC,-0.0853
24,AGAGGAAT,-0.217
25,AGACTTTC,-0.019

row,Sequence,PBM E-score
1,CTATCTCA,-0.0155
2,AAACCCCC,0.0758
3,ACATAATC,0.0836
4,ATGAGCCG,0.183
5,GAGTTCCC,0.137
6,AGAGTATA,-0.25
7,ACCTTCTG,-0.0806
8,AAGTCCCA,-0.199
9,AATATTCA,-0.0295
10,CAACAGTA,-0.154
11,CTGAGTGA,0.00658
12,AGTAGATC,0.143
13,GGGGCTCA,-0.212
14,AAAAAGCG,0.0317
15,ACCGACAA,0.273
16,GCTGTCGA,-0.107
17,CCCTATCC,0.0715
18,CACTTACA,-0.102
19,AAAGAAAT,-0.183
20,CATTTGAG,-0.0761
21,CACTGCTG,-0.211
22,ATTCCCCG,0.254
23,AATTTCAT,-0.114
24,CGGGACCA,0.214
25,CTTAGCGA,-0.0967

row,Sequence,PBM E-score
1,GCGTTGCC,0.197
2,AGCGCCTG,-0.0205
3,GACCATTA,0.0444
4,ACTTACAC,-0.158
5,CAATGTCG,0.0741
6,AATGAGTC,-0.183
7,AACAAGCG,0.0118
8,TACCGAAA,0.385
9,CCTTACAC,-0.169
10,TACACAGA,-0.281
11,AAGAAGCT,-0.257
12,ATGCTTAG,-0.3
13,TGAGCTAA,-0.15
14,AGAGACAA,-0.185
15,GATAGGCA,-0.114
16,CAAACTCC,0.234
17,GGAGCTAA,-0.0109
18,AACATGGT,-0.108
19,ATGGTCAG,-0.163
20,TATGAAAA,-0.0373
21,GAACTGGA,0.19
22,CGCGTGAA,0.0724
23,AGGATTAA,0.0619
24,GGACGCCA,-0.12
25,CATAGGGG,-0.119

row,Sequence,PBM E-score
1,GCCGACCA,0.207
2,ACAAATGA,-0.257
3,AGACTACT,-0.123
4,CGAGCCGC,0.328
5,ATCCTAAC,-0.0721
6,AGGTAAGG,-0.294
7,CTCCTAAA,-0.336
8,CAATATTA,-0.0638
9,TAGGAAAA,-0.156
10,ACCGCTTA,-0.132
11,GACTTGAC,-0.0115
12,AATGAAGC,-0.14
13,CCCTGTCC,-0.224
14,CCGTCTTA,0.0326
15,AATCGCTG,-0.0898
16,CGAATGTA,0.193
17,AATCCCCC,-0.0384
18,GCGGCAAA,0.182
19,ATGTAATC,-0.0173
20,CGCCATTA,-0.125
21,CTGCAAAC,-0.133
22,CAGCAAGA,-0.0366
23,AGAGATTG,-0.131
24,AGAGCTGA,-0.148
25,ATTGTTCC,0.29

row,Sequence,PBM E-score
1,AGGCGGAG,0.04
2,AGTCGGCA,0.27
3,GCGCAGCC,-8e-05
4,AAGCTCGG,0.439
5,CACCCCAG,-0.203
6,AATCCACA,-0.00481
7,CCGTCAAC,0.13
8,AGGTTGGG,-0.177
9,TCACCCCA,-0.0405
10,AGTATGAC,-0.0384
11,AATATCCA,0.0783
12,GAGTGGAC,-0.0847
13,GCGATGAC,-0.036
14,CCGTGATA,0.171
15,AAAATGTG,0.0458
16,ATATAGAT,-0.0087
17,GTCGTGTA,-0.175
18,AACCCACG,-0.156
19,CAGCCCCG,0.113
20,CCATAGCC,0.0889
21,CCGGCCGA,0.356
22,TAGCGTCA,-0.249
23,ATCGGCAT,0.359
24,CACTCTTC,-0.0762
25,GTTAATGA,-0.154

row,Sequence,PBM E-score
1,CACGCAGG,-0.106
2,AAGACATC,-0.0643
3,CGACAGCC,-0.0124
4,ACCCTCAC,-0.163
5,AAACCAGG,-0.0927
6,ATAGCTGA,-0.212
7,GATTTCCA,-0.107
8,AAGCTAGA,-0.219
9,CGCACCTC,0.093
10,GGAAGATA,0.255
11,CAGTTGCA,-0.145
12,CATGTTAC,-0.175
13,GTAGCAAA,-0.0766
14,CGTAAAAC,0.0937
15,GTAGCCTA,-0.382
16,CGACATTA,0.187
17,GCATTGAA,0.11
18,GTAGCGAC,-0.111
19,GGCCTAGA,-0.199
20,AGGTAGTC,0.0157
21,AGCCAGAC,-0.0305
22,ACTCTGAC,-0.0524
23,GGTCCATA,-0.146
24,ATCCTGGA,-0.138
25,ATGATTTC,0.0687

row,Sequence,PBM E-score
1,GTGAAACA,-0.119
2,CCCCCAGG,-0.166
3,GCGCTACA,-0.19
4,AATGGCGT,-0.0969
5,AAATTCCC,0.167
6,AAATGTCC,0.0336
7,GGGGGATA,0.0572
8,AAGGCACG,-0.0273
9,AAGTAAGA,-0.347
10,GACAGGAC,-0.173
11,ACTCATCG,-0.0688
12,GGCCAGGA,-0.206
13,CGTGTCCC,0.0996
14,GCTAACGA,0.0283
15,CATAAATG,-0.181
16,AACTTACA,-0.291
17,CATCTTTC,-0.0854
18,ACACCCAT,-0.0982
19,CCAGAGCG,-0.229
20,ACGTCTAC,-0.212
21,AAATCCCC,0.0768
22,AGCCTGAA,-0.115
23,ATGCTCGC,-0.239
24,CTAACTAA,-0.063
25,AACTTGGC,-0.109

row,Sequence,PBM E-score
1,GTGGGCAA,-0.0788
2,AAGTCGCC,0.019
3,CAGGCAAA,-0.0379
4,CCTGGACC,-0.229
5,ACCCCACG,0.0622
6,ATCGGAAC,0.428
7,GCGCTAAC,-0.112
8,ACACACTC,-0.0812
9,AACGCCTA,-0.0403
10,CATGAATA,-0.291
11,AAGTGTGG,0.0214
12,ATCACACA,-0.149
13,CATCGACA,0.0237
14,ACCCCGAG,0.333
15,CGGGAACG,0.339
16,AGTCCTCG,-0.0946
17,AGGCCTGC,-0.143
18,GGAGCGGA,0.26
19,ACCATTGG,-0.229
